From patent publication US20230265181A1 (CHIA TAI TIANQING PHARMACEUTICAL GROUP, published 2023)
Positions count from the first letter of the chain named.

B1: 1A10-Fc (Fc fusion)
chain: QVQLVESGGGSVQAGGSLRLSCAASGYSSNVACMAWYRQAPGKEREWVATIVADFGTTNYAASVKGRFTISQDNAKNTVYLQMNSLKPEDSAMYYCAATQRGGIDWCDEINYWGQGTLVTVSS[human IgG1 Fc not spelt out]
notes: also called anti-human BCMA VHH-Fc chimeric antibody 1A10-Fc
B2: 1A11-Fc (Fc fusion)
chain: QVQLVESGGGSVQAGGSLRLSCAASGVTFNSACMGWFRQAPGKEREGVARIETGYGGTVYADSVKGRFTISRDNAKNTVYLQMNSLKPEDTAMYYCAAKRSWCTPTWWHELDYNYWGQGTQVTVSS[human IgG1 Fc not spelt out]
notes: also called anti-human BCMA VHH-Fc chimeric antibody 1A11-Fc
B3: 1A1-Fc (Fc fusion)
chain: QVQLVESGGGSVQAGGSLRLSCTASGYTFRGWNKHWYRQAPGKERELVSSIFRDGKTAYTDSVKGRFTISQDNADATVYLQMNSLKPEDTAMYYCKYDLPGSGLPAFWGQGTLVTVSS[human IgG1 Fc not spelt out]
notes: also called anti-human BCMA VHH-Fc chimeric antibody 1A1-Fc
B4: 1B10-Fc (Fc fusion)
chain: B3 chain with Q1E, N73S, A106E
notes: also called anti-human BCMA VHH-Fc chimeric antibody 1B10-Fc

These binders were tested against T1, cynomolgus monkey BCMA-His (ACRO, catalog No. BCA-052H7) (cynomolgus monkey, UniProt A0A2K5UD97 1-53) (assay: SPR (Biacore T200), antibody captured by anti-hIgG (Fc), cynomolgus BCMA-His as analyte, Langmuir 1:1).
T1 construct: Bought (ACRO); also called cynomolgus monkey BCMA protein; not shown: His tag
T1 sequence (A0A2K5UD97 entry or part of it): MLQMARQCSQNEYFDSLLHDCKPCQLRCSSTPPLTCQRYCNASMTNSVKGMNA
Description: (§1) The anti-human BCMA VHH-Fc chimeric antibodies were tested for affinity using a biomolecular interaction analysis system (GE, Biacore T200). An anti-hIgG (Fc) antibody (GE, product catalog No. BR-1008-39) was amino-coupled to a CM5 sensor chip. The anti-human BCMA VHH-Fc chimeric antibodies were diluted to 1 μg/mL with a running buffer (137 mM Nacl, 2.7 mM KCl, 10 mM Na₂HPO₄·12H₂O, 1.8 mM KH₂PO₄, 0.05% surfactant P-20 (w/v), pH 7.4), and capture was allowed by passing the dilutions through experimental channels at a flow rate of 30 μL/min. Human BCMA-His (ACRO, product catalog No. BCA-H522y) or cynomolgus monkey BCMA-His (ACRO, catalog No. BCA-052H7) was diluted with the running buffer to 100 nM, 50 nM, 25 nM, 12.5 nmol/L, 6.25 nM and 3.125 nM, and binding was allowed for 200 s by passing the dilutions at a flow rate of 50 μL/min. Then dissociation was allowed for 800 s by stopping sample injection. The data signals were collected by BiaControl Software 2.0 in real time, and analyzed by BiaEvaluation Software 2.0. Fitting was performed using a Langmuir 1:1 model, and the binding rate constant Ka (l/Ms), the dissociation rate constant Kd (l/s) and the equilibrium constant KD (M) were calculated. 1A1-Fc, 1A10-Fc, 1A11-Fc and 1B10-Fc all have relatively high affinity for human BCMA protein. There were cross-reactions of 1A10-Fc and 1A11-Fc with cynomolgus monkey BCMA protein.

Binder	Kd [nM]	koff [s⁻¹]	kon [M⁻¹ s⁻¹]
B1	23.3	0.0294	1.26e+06
B2	96.1	0.0631	657000

The binders below were run against T2, human BCMA-His protein (ACRO, product catalog No. BCA-H522y) (human, UniProt Q02223 1-54, biotin-conjugated in the competition ELISAs of Examples 5 and 6.1 (sites not given)) (assay: SPR (Biacore T200), antibody captured by anti-hIgG (Fc), human BCMA-His as analyte, Langmuir 1:1).
T2 construct: Bought (ACRO BCA-H522y); also called recombinant BCMA-His protein; biotin-conjugated BCMA-His; not shown: His tag
T2 sequence (looked up): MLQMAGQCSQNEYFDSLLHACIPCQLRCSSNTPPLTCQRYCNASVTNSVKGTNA
Description: as §1

Binder	Kd [nM]	koff [s⁻¹]	kon [M⁻¹ s⁻¹]
B1	0.313	0.000476	1.52e+06
B2	0.812	0.00141	1.74e+06
B3	0.649	0.000742	1.14e+06
B4	0.129	0.000198	1.53e+06

What follows are binders tested against T1, cynomolgus monkey BCMA-His (ACRO, …) (assay: SPR (Biacore T200), antibody captured by anti-hIgG (Fc), cynomolgus BCMA-His as analyte).
Description: as §1

Binder	binding result
B3	no binding (tested: 100 nM highest concentration)
B4	no binding (tested: 100 nM highest concentration)

What follows are binders tested against T2, human BCMA-His protein (ACRO, product …) (assay: indirect ELISA, human BCMA-His coated at 2 ug/mL).
Description: 2 μg/mL human BCMA-His protein (ACRO, product catalog No. BCA-H522y) was allowed to coat a high-adsorption microplate, and then the plate was blocked with 3% (w/v) BSA blocking buffer. […] The plate was incubated at 37° C. for 1 h. After the plated was washed, an HRP-conjugated anti-human IgG Fc tag secondary antibody (PerkinElmer, product catalog No. NEF802001EA) was added. The plate was incubated at 37° C. for 0.5 h and then washed 5 times, and a TMB substrate solution (TIANGEN, product catalog No. PA107) was added at 100 μL/well for color development. The light absorption signal values at the wavelength of 450 nm and the reference wavelength of 650 nm were measured. A curve (FIG. 1) was fit, and the EC₅₀ values (Table 1) were calculated.

Binder	EC50 [nM]
B1	0.15
B2	0.21
B3	0.069
B4	0.131
